# Out of some 52,000 compounds screened, about 1,700 (3.3%) were called active. Rule as the data show it: active = survival mostly below about 52% (no sharp cut-off); inactive = mostly above about 56%. Some of the results follow.
# Tested on: Wild type
# Assay: growth inhibition of S. aureus wild type versus tarO mutant, primary screen, teichoic acid synthesis inhibitors, RN4220, OD600 (AID 463173)
# Details: S. aureus RN4220 wild type/DeltatarO growth, OD600, 18 h, stronger effect = lower value, screened at 18.75 µg/mL (by protocol)
row,Compound,survival
1,CC(C)(C)c1ccc(-c2nnc(-c3ccccc3NC(=O)c3cccc(C(F)(F)F)c3)o2)cc1,inactive: 75%
2,Cc1ccc(C)c(Cn2c(=O)n(Cc3ccccc3)c(=O)c3sc4ccccc4c32)c1,inactive: 86%
3,OCCNc1nc(N2CCOCC2)ncc1F,inactive: 85%
4,Cc1ccc(/C=C/c2onc(C)c2S(=O)(=O)N2CCC(C(=O)NCc3ccco3)CC2)cc1,inactive: 83%
5,Cc1cc(C)cc(NS(=O)(=O)c2ccc(-c3cc(C)no3)cc2)c1,inactive: 47%
6,Cc1ccc(CCNC(=O)c2ccc3c(c2)N(Cc2cc(C)ccc2C)C(=O)c2ccccc2S3=O)cc1 (stereo not drawn),inactive: 81%
7,CCN(CC)c1ccc(NC(=O)CN2C(=O)c3cccnc3Oc3ccccc32)c(C)c1,inactive: 135%
8,COc1ccc2c(c1)NC(c1ccc(F)cc1)=NC(c1ccc(F)cc1)=N2,inactive: 93%
9,CCCNC(=O)C1CCN(S(C)(=O)=O)CC1,inactive: 107%
10,CCOC(=O)c1cccc(NS(=O)(=O)c2cc(Br)cc3c2N(C(=O)C2CC2)CC3)c1,inactive: 151%
11,COc1cccc(N2CCN(C(=O)CN3CCSc4ccc(S(=O)(=O)N(C)C)cc43)CC2)c1,inactive: 72%
12,COc1ccc(NC(=O)C2CCN(C3=NS(=O)(=O)C(c4ccc(C)c(C)c4)=C3C)CC2)cc1OC,inactive: 99%
13,COC(=O)c1ccc(OCC2c3cc(OC)c(OC)cc3CCN2C(=O)c2cccc(C)c2)cc1 (stereo not drawn),inactive: 110%
14,CCn1nnnc1SCC(=O)c1ccc(NC(C)=O)cc1,inactive: 110%
15,COc1ccc(CNC(=O)CCS(=O)(=O)c2cc(Br)cc3c2N(C(=O)C2CC2)CC3)cc1,inactive: 83%
16,CCCCN(Cc1ccccc1)S(=O)(=O)c1ccc2c(c1)CCN2C(=O)C1CCC1,inactive: 74%
17,CCCCC(=O)Nc1ccc(NC(=O)C2CC2)nc1,inactive: 101%
18,COc1cccc(CNC(=O)Cn2c(=O)n3nc(-c4cccc(C)c4)nc3c3ccccc32)c1,inactive: 92%
19,O=C(Cn1nc(Cc2cccnc2)c2ccccc2c1=O)N1CCN(c2ccc(F)cc2)CC1,inactive: 89%
20,COc1ccc(Nc2ncnc3onc(C)c23)cc1Cl,inactive: 85%
21,CCCSCCCNC(=O)C1CCCN(C(=O)c2cnn(-c3ccccc3)c2-n2cccc2)C1 (stereo not drawn),inactive: 107%
22,COCCCNC(=O)CCCN1C(=O)CCn2nc(-c3cn(C)c4ccccc34)cc21,inactive: 78%

row,Compound,survival
1,Cc1ccc(C)c(N2CCN(CCCNc3ncnc4onc(-c5ccc(Cl)cc5)c34)CC2)c1,inactive: 75%
2,COc1ccc(-c2ccnc3c2c(=O)n(C)c(=O)n3C)cc1OC,inactive: 70%
3,CCN(C(=O)C(NS(=O)(=O)c1cccc2nsnc12)c1ccccc1)c1ccccc1 (stereo not drawn),inactive: 117%
4,COc1ccc(OC)c(CNC(=O)CCS(=O)(=O)c2ccc3c(c2)oc(=O)n3C)c1,inactive: 72%
5,Cc1ccc(NC(=O)[C@H](CSCc2ccccc2)N2Cc3ccccc3C2=O)cc1,inactive: 84%
6,Cc1ccc(C(=O)N2c3nc(-c4ccco4)nn3C3(CCCCC3)[C@@H]3CCCC[C@@H]32)cc1,inactive: 77%
7,Cc1cc(Nc2ccc(C)c(Cl)c2)n2nc(-c3ccccc3)nc2n1,inactive: 90%
8,Cc1cc(C)c(NC(=O)CN2C(=O)c3cccnc3Oc3ccc(Cl)cc32)c(C)c1,inactive: 74%
9,O=C(Cc1ccc(Cl)cc1)NCCN1CCOCC1,inactive: 124%
10,CC1CCN(S(=O)(=O)c2cccc(C(=O)NC3CCS(=O)(=O)C3)c2)CC1 (stereo not drawn),inactive: 81%
11,NC(=O)CCN1CCOCC1,inactive: 102%
12,CSc1nc(NC(C)C)nc(N(C)C(N)=O)n1,inactive: 122%
13,O=C(CSc1nnc(-c2cccnc2)o1)OC1CCCCC1,inactive: 103%
14,O=C(CCNS(=O)(=O)c1cccc2nsnc12)Nc1ccc(F)cc1,inactive: 64%
15,Cn1c(=O)c2c(-c3ccccc3)n3c(c2n(C)c1=O)C(c1cc(Cl)ccc1O)Nc1ccccc1-3 (stereo not drawn),active: -9%
16,COc1ccc(-c2nc3cc(NC(=O)COc4ccc(F)cc4)ccc3o2)cc1,inactive: 87%
17,CN1/C(=N\N)c2cccc3cccc1c23,inactive: 120%
18,COc1ccc(S(=O)(=O)N2CCC(C(=O)N3CCCC3)CC2)cc1OC,inactive: 107%
19,CN1C(=O)CSC1=Nc1cccc(C(=O)O)c1,inactive: 104%
20,Cc1csc2nc(-c3cccc(NC(=O)c4ccc(S(N)(=O)=O)cc4)c3)cn12,inactive: 124%
21,Cc1ccc2cccc(NC(=O)c3ccc(-c4ccc(Cl)cc4Cl)o3)c2n1,inactive: 69%
22,COc1ccc(OC)c(CNC(=O)c2cc(=O)[nH]c3ccc(S(=O)(=O)N4CCCCC4C)cc23)c1 (stereo not drawn),active: 1%

row,Compound,survival
1,COc1ccccc1/C=C(\C#N)c1nc(-c2cc3ccccc3oc2=O)cs1,inactive: 81%
2,CCC(=O)Nc1ccc(S(=O)(=O)NCc2cccn2Cc2cccc(C)c2)cc1,inactive: 87%
3,CCOc1ccc(-c2cc(C)n3nc(C(=O)Nc4cc(Cl)ccc4O)cc3n2)cc1,inactive: 87%
4,COc1cccc(NC(=O)Cn2c(=O)n(Cc3nc(-c4ccccc4)no3)c(=O)c3ccccc32)c1,inactive: 91%
5,O=C(NCCC1=CCCCC1)c1ccc2c(c1)ncn2-c1cccc(Cl)c1,inactive: 73%
6,CCc1ccccc1NC(=O)CSc1ncc2c(n1)-c1ccccc1N(C)S2(=O)=O,inactive: 130%
7,Cc1ccc(C(=O)NC(C)C)cc1C,inactive: 110%
8,COc1ccc(S(=O)(=O)NCCc2sc(-c3ccccc3)nc2C)cc1OC,inactive: 78%
9,CCOC(=O)N1CCC(NC(=O)c2cnn(-c3ccccc3)c2C2CCN(C(=O)OC(C)(C)C)CC2)CC1,inactive: 128%
10,COc1ccc(CNC(=O)CN2C(=O)COc3ccc(S(=O)(=O)N4CCCCCC4)cc32)cc1,inactive: 87%
11,COC(=O)c1sccc1S(=O)(=O)N(CC(=O)Nc1cc(C)cc(C)c1)c1ccc(Cl)cc1,inactive: 85%
12,COc1ccc(-n2c(SCC(=O)NCc3ccccc3)nc3ccsc3c2=O)cc1,inactive: 85%
13,CC(C)C(=O)Nc1cccc(C(=O)Nc2nncs2)c1,inactive: 99%
14,Cc1ccc(C2Nc3ccccc3-n3c(-c4ccccc4)c4c(=O)n(C)c(=O)n(C)c4c32)cc1 (stereo not drawn),active: -8%
15,COc1ccc(NC(=O)c2nn(C)c3c2CSc2ccc(C)cc2-3)cc1OC,inactive: 68%
16,COCCCNC(=O)c1ccc(Cn2c(=O)c3ccccc3n(Cc3ccc(C)cc3)c2=O)cc1,inactive: 74%
17,COc1ccc(CNC(=O)c2ccc(CNS(=O)(=O)c3ccc(OC)cc3)cc2)cc1,inactive: 86%
18,COc1cccc(NC(=O)c2ccc3c(=O)n4nc(Nc5ccccc5OC)sc4nc3c2)c1,inactive: 76%
19,CCOC(=O)c1ccc(NC(=O)CC2Nc3cc(C)c(C)cc3NC2=O)cc1 (stereo not drawn),inactive: 75%
20,COCCOC(=O)Cn1nnc2sc(-c3ccccc3)cc2c1=O,inactive: 83%
21,Cc1nn(S(=O)(=O)c2ccc(C(C)C)cc2)c(C)c1S(=O)(=O)N1CCCCC1,inactive: 55%
22,Cc1ccc2c(c1)-c1c(cnn1CC(=O)N1CCN(c3cccc(C(F)(F)F)c3)CC1)CO2,inactive: 54%

row,Compound,survival
1,CC(=O)N1CCCc2cc(S(=O)(=O)N3CCCC(C(=O)N4CCN(c5ccccc5F)CC4)C3)ccc21 (stereo not drawn),inactive: 73%
2,Cc1nc(SCC(=O)OC(C)(C)C)c2c3c(sc2n1)CCCC3,active: 15%
3,O=C(c1nn2c(c1Cl)NC(c1cccs1)CC2C(F)(F)F)N1CCOCC1 (stereo not drawn),inactive: 103%
4,CCc1cccc(C)c1NS(=O)(=O)c1ccc2c(c1)NC(=O)C(C)C(=O)N2 (stereo not drawn),inactive: 127%
5,CCOc1ccc(-n2c(=O)c3c4c(sc3n(CC(=O)NCCCOC)c2=O)CCCCC4)cc1,inactive: 117%
6,Cc1ccc(CNC(=O)c2c(-c3ccc(F)cc3F)noc2C)o1,inactive: 85%
7,Cc1cc(C)c(NC(=O)Cn2nnc(C(=O)NCc3cccs3)c2N)c(C)c1,inactive: 75%
8,COc1ccc(-c2cn3nc(N4CCCC(C(=O)Nc5cc(Cl)ccc5OC)C4)sc3n2)cc1 (stereo not drawn),inactive: 69%
9,CCOC(=O)c1cc2c(=O)n3ccccc3nc2n(Cc2ccco2)c1=NC(=O)c1ccc(OC)cc1,inactive: 68%
10,CSc1ccc(CNC(=O)c2ccc3c(c2)N(C)C(=O)C2CCCCN32)cc1 (stereo not drawn),inactive: 83%
11,CC(C)COc1ccc(C(=O)Nc2scc(-c3ccc(Br)cc3)c2C(=O)OC(C)C)cc1,inactive: 76%
12,Cc1ccccc1OCc1ccc(-c2nc(C#N)c(N3CCCCC3)o2)o1,inactive: 122%
13,COc1cc(NC(=O)Cn2c(=O)n(-c3ccccc3)c(=O)c3c4c(sc32)CCCC4)cc(OC)c1,inactive: 94%
14,CCCCNC(=O)c1cnn2c(C)c(Cc3c(C)cc(C)cc3C)c(C)nc12,inactive: 124%
15,COc1ccc(CC(=O)NCC(c2ccc(N(C)C)cc2)N2CCOCC2)cc1OC (stereo not drawn),inactive: 81%
16,O=c1ccc2cc(S(=O)(=O)NCc3ccc(Cl)cc3)ccc2[nH]1,inactive: 84%
17,O=C(NCc1ccccc1)c1cccc(N2CCCS2(=O)=O)c1,inactive: 125%
18,Cc1nc2cccnc2n1C1CCN(C(=O)Nc2ccccc2C(F)(F)F)CC1,inactive: 72%
19,COc1cc(C)nc(Oc2ccc(OCCOc3ccccc3)nn2)n1,inactive: 98%
20,CNS(=O)(=O)c1cn(CC(=O)N2CCN(c3ccc(Cl)cc3)CC2)cc1S(=O)(=O)NC,inactive: 124%
21,COc1ccc(C(=O)COC(=O)CCCC(=O)Nc2ccc(C(C)=O)cc2)cc1,inactive: 72%
22,CCOc1ccc(-n2nc(CO)c(C(=O)NCC(c3ccccc3)c3ccccc3)n2)cc1,inactive: 89%

# Source: PubChem BioAssay AID463173 (ICCB-Longwood Screening Facility, Harvard Medical School, 2010)
